# Some of the results follow. The full chains were built here from the parent and the listed change. Values near 0.05 are background.
# B1: TEV protease; numbered along this chain (parent)
# chain: MGESLFKGPRDYNPISSSICHLTNESDGHTTSLYGIGFGPFIITNKHLFRRNNGTLVVQSLHGVFKVKDTTTLQQHLVDGRDMIIIRMPKDFPPFPQKLKFREPQREERICLVTTNFQTKSMSSMVSDTSCTFPSGDGIFWKHWIQTKDGQCGSPLVSTRDGFIVGIHSASNFTNTNNYFTSVPKNFMELLTNQEAQQWVSGWRLNADSVLWGGHKVFMVKPEEPFQPVKEATQL
# Variants of: B1
# Test: raw area under fraction-flipped curve 0-4 h after induction (AUC4h, not background-subtracted), DNA-recorder readout of cleavage of the substrate (dimensionless); higher = more cleavage of the substrate by the protease variant
# Conditions: temperature: 34 °C; time window: 0-4 h after rhamnose induction
# Method: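 In vivo DNA recorder in E. coli TOP10(DE3) ΔrhaA at 34 °C. Each TEVp single-site mutant (parent TEVp 0) is paired with a single-site variant of the 7-mer TEVs (canonical ENLYFQ|S). The substrate sits between flexible linkers in a Bxb1-sfGFP-TEVs-SsrA fusion, so cleavage stabilises Bxb1 and speeds flipping of a recombination array, read by NGS. The value is the raw area under the fraction-flipped curve over 0-4 h after rhamnose induction (AUC4h), with ≥20 reads per time point. It is not background-subtracted; inactive controls average about 0.047.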
# 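Further: Bxb1 expression induced with 0.2% (w/v) L-rhamnose at OD600 near 0.5, cultures sampled hourly, flipped fraction per protease–substrate barcode pair counted by paired-end Illumina sequencing.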
Variant,area with substrate ENLYAQS,area with substrate ENLYDQS,area with substrate ENLYGQS,area with substrate ENLYIQS,area with substrate ENLYKQS,area with substrate ENLYLQS,area with substrate ENLYMQS,area with substrate ENLYPQS,area with substrate ENLYQQS,area with substrate ENLYTQS,area with substrate ENLYWQS,area with substrate ENLYYQS,area with substrate ENLYCQS,area with substrate ENLYEQS,area with substrate ENLYHQS,area with substrate ENLYNQS,area with substrate ENLYRQS,area with substrate ENLYSQS,area with substrate ENLYVQS
T72Q,0.0726,0.0611,0.0595,0.138,0.051,0.111,0.0724,0.0761,0.06,0.0901,0.0838,0.065,–,–,–,–,–,–,–
L73V,0.0686,0.0841,0.0501,0.0956,–,0.0798,0.0791,0.0679,0.0648,0.0795,0.092,–,0.0709,0.056,0.0646,0.0645,0.0547,0.0799,–
Q75N,0.0636,0.0609,–,–,–,–,–,–,–,–,0.108,–,–,0.0539,0.0636,–,0.0644,–,–
L77F,0.0605,0.0476,0.07,0.0606,0.057,0.0612,0.0647,0.0601,0.0634,0.0611,0.0672,0.0586,0.0652,0.0606,0.0666,0.0671,0.0641,0.0555,0.0711
L77P,0.084,0.0555,0.0632,0.0799,0.0706,–,0.0654,0.0675,–,0.0649,0.0861,0.0672,0.0798,0.0561,0.0629,0.0403,–,–,0.12
G80D,0.0787,0.0468,–,0.12,0.0661,–,0.104,0.074,0.062,0.09,0.0975,0.0637,0.107,0.0853,0.0815,0.0586,0.0716,0.0813,–
G80E,0.0913,–,0.0749,–,0.0446,–,–,0.0653,0.0708,0.0792,0.0899,–,–,0.0634,0.0724,0.073,–,0.115,0.17
G80I,0.073,0.0528,0.0628,0.0975,–,0.0878,–,–,0.0513,–,0.0409,0.0677,–,0.0589,0.0679,0.0209,0.0462,–,0.141
G80Q,0.0726,0.0655,0.0679,0.122,0.0689,0.0882,0.0814,0.0744,0.0641,0.0691,0.0719,–,–,0.069,0.0637,0.0625,0.0703,0.0797,–
G80V,0.0777,0.055,0.0349,0.0912,0.0548,–,0.0699,0.0684,–,–,0.0861,0.0564,–,0.0494,–,0.0673,0.0524,0.0643,0.101
G80W,0.0828,0.0636,0.0635,0.123,0.0605,–,0.105,0.0533,0.0625,–,0.0729,0.0711,–,0.0678,0.063,0.0639,–,0.0677,0.122
R81H,0.0681,0.0577,–,0.0901,0.0223,0.0414,0.0411,0.0681,0.0669,0.0483,0.0665,0.0585,–,0.0465,0.0643,0.0642,0.0551,0.0637,–
M88N,0.0525,0.0348,–,0.122,0.0486,0.073,0.0625,0.0702,0.0721,–,0.0688,–,0.0845,0.0562,0.0574,0.0369,0.0412,–,–
M88T,0.0553,–,0.0642,–,0.0284,–,0.0844,0.0747,0.0647,–,0.0849,–,–,–,0.0724,0.059,–,0.0698,–
M88V,0.0244,0.0782,0.0589,0.149,0.0648,–,0.0772,0.0556,–,0.0763,0.114,–,–,0.075,–,0.0742,0.051,–,–
P96A,0.0703,0.0496,0.0699,0.131,0.0607,–,0.0847,–,–,–,–,0.0729,–,0.0813,0.0738,0.0673,–,0.0815,0.071
P96Q,0.0993,0.0631,0.107,–,–,–,0.0734,0.0616,0.0506,–,0.0798,–,–,0.0517,–,–,–,0.0803,–
P96T,0.0621,0.0668,0.0628,0.0966,0.0128,–,–,–,–,–,–,–,–,–,–,0.0536,–,–,–
P96W,0.0638,–,0.0495,–,0.026,–,0.0617,0.0642,–,0.0058,–,–,–,–,0.0663,0.0638,–,0.0755,0.108
F101N,0.053,0.042,0.0479,–,0.062,–,0.0514,0.0474,0.0475,–,0.0313,0.0501,–,0.0482,0.0475,0.0504,–,–,0.0502
R102Y,0.0368,–,0.05,–,0.0263,0.0098,–,0.0267,0.0297,0.0301,–,0.0383,–,–,0.0481,0.0451,–,–,0.04
P104C,0.058,0.0666,0.0659,0.0924,0.062,–,0.0697,0.0444,0.0592,0.0711,0.0719,0.067,–,0.0624,0.0622,0.0756,0.0617,0.0707,0.0763
P104N,0.055,0.0546,–,0.0415,0.0103,–,0.0354,0.046,0.0414,–,0.0524,0.0275,0.0656,0.0521,0.0456,0.0465,0.0532,0.0747,0.0491
P104S,0.0646,–,0.0411,–,0.0499,0.0583,0.0469,0.0557,0.0558,–,0.0345,–,0.0644,0.0619,0.0465,0.0514,0.0568,0.0396,–
P104V,0.0855,0.0579,0.0617,0.0932,0.0692,–,0.0595,0.0629,–,0.068,–,0.0442,–,–,0.0429,0.0679,0.057,0.0688,0.0763
R106G,0.0865,0.0853,–,0.128,–,–,0.111,–,–,–,0.0761,–,–,–,–,0.0687,–,0.0728,0.0874
R106P,0.0394,–,0.0922,–,0.0612,0.094,–,0.072,0.0581,–,0.071,–,–,0.0546,0.0624,0.0689,0.0642,0.0643,–

# From the supplement of paper PMC12217912
